The source gives no read counts; variants with many changes may rest on few reads.
B1: LINE1-mini (parent)
chain: GGCAGAGCUCAACACAGCGUGGCAAAGUGGCUGUGGCUAGACUGCC

Variants of: B1
Assay: self-cleavage, relative activity (ratio to wild type); higher = more cleavage; in vitro, sequencing; the parent is a self-cleaving ribozyme
For C18G G33C G36U C45G, the self-cleavage was 0.
G19U G36C C46A showed a self-cleavage of 0.02.
In the case of C18G C31G G36U, the self-cleavage is reported as 0.04.
C18G U20A U32A G33U U38A showed a self-cleavage of 0.01.
G19C G21U U32G A39G showed a self-cleavage of 0.03.
U20A C31U G35U showed a self-cleavage of 0.03.
In the case of G19U G22U G40A, the self-cleavage is reported as 0.11.
G19A U20G G22U U28A C37G showed a self-cleavage of 0.01.
Work on G19U C23G A26U C37A C46U yielded a self-cleavage of 0.02.
For C18A G36A C45A, the self-cleavage was 0.01.
For C18U G22A G36U C37G, the self-cleavage was 0.
With G19C U38G C45G the self-cleavage was 0.09.
With C18G G27U G36U A39U U43G the self-cleavage was 0.26.
For G19U G21A C37G G44U, the self-cleavage was 0.02.
For G19A G29U G30U U32G, the self-cleavage was 1.21.
G19C G21A C23U gave a self-cleavage of 0.81.
G19U A26G G30U G33A showed a self-cleavage of 0.17.
G19C G33U U34A gave a self-cleavage of 0.06.
In the case of G19C C23G G30U C31A, the self-cleavage is reported as 0.1.
For G19A C23U G40A, the self-cleavage was 0.18.
Work on G19U G21C G29C yielded a self-cleavage of 0.76.
For U20A C42G C46G, the self-cleavage was 0.04.
For G19A A26C C37A C42A G44U, the self-cleavage was 0.06.
G19A U34C C37G showed a self-cleavage of 0.08.
Variant G19A G21A C45U has a self-cleavage of 1.32.
For C18U G21A U32G G36U, the self-cleavage was 0.06.
Variant G19A C23G G30U U38C A39G has a self-cleavage of 0.05.
U20A A26G G30C showed a self-cleavage of 0.25.
Work on C18G G27A G35U C37A A41G yielded a self-cleavage of 0.01.
G19C G22C C23A G27U U34G G36A C46U gave a self-cleavage of 0.14.
In the case of G19U A25U G40U C45G, the self-cleavage is reported as 0.09.
G19A U20A C31A C37G A39C gave a self-cleavage of 0.01.
C18U G29U G36U showed a self-cleavage of 0.36.
Work on G19C C23A A25G G30U A41U yielded a self-cleavage of 0.13.
With G19A G33U G40C the self-cleavage was 0.24.
In the case of G19U U32A A39U, the self-cleavage is reported as 0.23.
With C18G G30A U34G G40A the self-cleavage was 0.01.
C18U A24C G33A A41U G44A gave a self-cleavage of 0.04.
G19C A26G G27C gave a self-cleavage of 0.18.
C18G G36C C46A gave a self-cleavage of 0.12.
G19U A25G U43C G44C gave a self-cleavage of 0.04.
C18U U34C U43A gave a self-cleavage of 0.03.
C18G G35C C45G gave a self-cleavage of 0.06.
In the case of C18A G27A U32C, the self-cleavage is reported as 0.15.
Variant C18G A26U G27A G29U has a self-cleavage of 0.05.
In the case of C18G A24C G29C, the self-cleavage is reported as 0.08.
C18G U20C A24U C45A C46U gave a self-cleavage of 0.05.
Work on U20A A24C G27A U28G U34G yielded a self-cleavage of 0.02.
G19C G21U A24C G33U showed a self-cleavage of 0.1.
G19A G29C C31U gave a self-cleavage of 0.3.
C18G G22U C23U G36U A41U showed a self-cleavage of 0.04.
Work on C18A G36U C37A C46U yielded a self-cleavage of 0.13.
In the case of G19U G33U C46G, the self-cleavage is reported as 0.13.
For C18A G36U U38A G40C C45G, the self-cleavage was 0.01.
Variant G19U G22A U28G has a self-cleavage of 0.18.
Variant G19U G22U C23U has a self-cleavage of 0.29.
G19A A25U G44U showed a self-cleavage of 0.32.
C18U G22A G27A showed a self-cleavage of 1.81.
With C18G U20A G22C G27A G40A U43C the self-cleavage was 0.05.
In the case of G19C C23U G36A, the self-cleavage is reported as 0.02.
G19C A26U G29U showed a self-cleavage of 0.81.
Variant C18A U20A A26C A41C has a self-cleavage of 0.07.
Work on C18G G27A C37U yielded a self-cleavage of 0.01.
In the case of C18A G29U G36U, the self-cleavage is reported as 0.03.
Variant C18U G19A U43A has a self-cleavage of 0.03.
With C18A G22C C37A the self-cleavage was 0.02.
G19U A26C C42U G44U gave a self-cleavage of 0.69.
Variant C18U G22A G29C has a self-cleavage of 0.89.
In the case of C18U U38C G40U, the self-cleavage is reported as 0.04.
For C18U G33U U43G C46A, the self-cleavage was 0.01.
With G19A U20A C23A A41G the self-cleavage was 0.11.
Work on G19U G22U G30A A39C yielded a self-cleavage of 0.32.
Work on G19U U28C C31G C45G yielded a self-cleavage of 0.05.
C18U C23A C31A G36A G44U gave a self-cleavage of 0.
In the case of G19C U20G G27A, the self-cleavage is reported as 0.38.
C18U U28A A41G gave a self-cleavage of 0.3.
With C18U A25C U32A C37A the self-cleavage was 0.05.
With G19C G29C G30U G44U the self-cleavage was 0.24.
Variant G19C G22A A25U has a self-cleavage of 0.36.
For C18G U28A C46G, the self-cleavage was 0.87.
Variant C18G G21C C23U A25G has a self-cleavage of 0.08.
Work on C18U G21U C31U A41G yielded a self-cleavage of 0.03.
With G19A A24U A25U C31A C42U the self-cleavage was 0.09.
With G19A G33U C42U the self-cleavage was 0.08.
Work on G19A C37G C42U yielded a self-cleavage of 0.03.
In the case of G19U C31U C46A, the self-cleavage is reported as 0.39.
G19C G40C C45A gave a self-cleavage of 0.
For C18G G27U G36A A41C, the self-cleavage was 0.01.
C18G U28A C31A showed a self-cleavage of 0.09.
Variant G19A C37A A39U G40C G44A has a self-cleavage of 0.06.
For G19C G30C U43A C46U, the self-cleavage was 0.15.
Work on G19A U28A C42G C45G yielded a self-cleavage of 0.01.
With G19A A24C A39C G40C the self-cleavage was 0.04.
C18A G30A U32G C45U showed a self-cleavage of 0.01.
Variant G19A U34A G36C has a self-cleavage of 0.04.
With C18U U20A A26C the self-cleavage was 0.47.
For G19C G30A U34C G36C, the self-cleavage was 0.05.
Work on G19A U20A G33C yielded a self-cleavage of 0.01.
In the case of C18U A26C G36C C37A A41C, the self-cleavage is reported as 0.01.
G19C A24U A26C gave a self-cleavage of 1.54.
Variant U20A A25C C37G has a self-cleavage of 0.02.
Variant C18A U20A G35A has a self-cleavage of 0.02.
G19C A41C C42U gave a self-cleavage of 0.17.
G19U A25G G29A C37A A39C showed a self-cleavage of 0.05.
In the case of C18U U20G A25U, the self-cleavage is reported as 0.61.
For C18A U28C A39G, the self-cleavage was 0.05.
C18G U20G G27C G40C A41C gave a self-cleavage of 0.
C18G C23U G27U G29A G30A gave a self-cleavage of 1.43.
Work on G19C U28A U32G yielded a self-cleavage of 0.15.
Work on C18U G44U C46U yielded a self-cleavage of 0.02.
With G19U A25C U32G the self-cleavage was 0.18.
G19A C23A G30C A41U gave a self-cleavage of 0.74.
G19C G30C C42A showed a self-cleavage of 0.3.
Variant C18U G27C U32C has a self-cleavage of 0.02.
Variant C18G C37G U43A has a self-cleavage of 0.02.
With G19A G29A C42G C45G the self-cleavage was 0.01.
For C18U G21A C23U, the self-cleavage was 0.35.
In the case of G19A G27A G30A, the self-cleavage is reported as 0.9.
Variant U20A G21A A24G G40A C46G has a self-cleavage of 0.05.
With C18A G27A C45U the self-cleavage was 0.43.
Variant C18A G36C U43G has a self-cleavage of 0.01.
For C18A G27C G40C, the self-cleavage was 0.19.
With C18U G19C C37G C45U the self-cleavage was 0.02.
Variant C18U U34A A39U G40U has a self-cleavage of 0.02.
With G19U U38A C46A the self-cleavage was 0.34.
For U20A C23U G29A G35C, the self-cleavage was 0.34.
Variant G19A G21A U28G G30U has a self-cleavage of 1.08.
In the case of G19U U20A G30C, the self-cleavage is reported as 1.64.
Work on G19C U34A C42G yielded a self-cleavage of 0.04.
C18A G27A G30U gave a self-cleavage of 0.41.
C18U C31G G36U C46G gave a self-cleavage of 0.01.
Work on C18G G33C C45U yielded a self-cleavage of 0.04.
Variant G19U G30A G35U C46G has a self-cleavage of 0.07.
In the case of G19U C37A C42U, the self-cleavage is reported as 0.03.
G19A G36U U38A C42G showed a self-cleavage of 0.01.
Work on C18U G35A G36A yielded a self-cleavage of 0.1.
With G19C A25C G27U U38A A39G the self-cleavage was 0.01.
With G19U G27U G33U G40U C45G the self-cleavage was 0.06.
Work on G19U A25U G33A yielded a self-cleavage of 0.08.
With G19C U32C C37G the self-cleavage was 0.03.
Work on G19A G22A A24U yielded a self-cleavage of 1.18.
In the case of G19U G33A G40U, the self-cleavage is reported as 0.03.
Work on G19C G27U A39C yielded a self-cleavage of 0.04.
Variant G19U U20A U28G G44U C45A has a self-cleavage of 0.25.
Variant C18U C23U G27C has a self-cleavage of 0.6.
For G19C G22C A41C, the self-cleavage was 0.04.
G19U G40C U43C gave a self-cleavage of 0.09.
Work on G19A G29C G36A yielded a self-cleavage of 0.05.
C18U G29U U38G G40U showed a self-cleavage of 0.
Work on C18U G33U C45U yielded a self-cleavage of 0.02.
For G19U U38A A39U, the self-cleavage was 0.84.
G19U G29A G30A U32A G33C U34A G36C showed a self-cleavage of 0.04.
In the case of G19C U20C G27A U34G C45G, the self-cleavage is reported as 0.03.
Variant G19U G29A G44A has a self-cleavage of 0.28.
Work on G19U A24G U32C U43G C46A yielded a self-cleavage of 0.92.
With C18A U20G G27U G44U C46A the self-cleavage was 0.34.
C18G A26U G40U gave a self-cleavage of 0.06.
In the case of G19C U20A G22U A26U G33A A41C, the self-cleavage is reported as 0.01.
In the case of G19C A25U C42G, the self-cleavage is reported as 0.01.
Variant G19C G33A G40C U43G has a self-cleavage of 0.02.
In the case of G19C G27U G30A C46G, the self-cleavage is reported as 0.86.
G19U U32C G35C A41U gave a self-cleavage of 0.01.
For C18G G19C A24C A41U C46A, the self-cleavage was 0.01.
C18G U34C G40C C46G showed a self-cleavage of 0.04.
With G19U U32G U43C the self-cleavage was 0.01.
With C18U U20C C23A the self-cleavage was 0.74.
Work on G19A A26G A41U yielded a self-cleavage of 1.11.

From the RNAGym collection of RNA variant scans (doi:10.7554/elife.90254)
